Over roughly 81,000 sequences, “one-hybrid fitness for binding NBS DNA” has its median near -0.1; the highest 2% begin near 0.36. The list shows a part of the results.
B1: Caulobacter ParB omega fusion; a variant is named by its letters at X, in order, B8GW30 (parent)
chain: MESVVVGEPGMSEGRRGLGRGLSALLGEVDAAPAQAPGEQLGGSREAPIEILQRNPDQPRRTFREEDLEDLSNSIREKGVLQPILVRPSPDTAGEYQIVAGERAWRAAQRAGLKTVPIMVRELDDLAVLEIGIIENVQRADLNVLEEALSYKVLMEKFERTQENIAQTIGKSXSHVANXMRLLXLPDEVQSYLVSGELTAXHARAIAAAADPVALAKQIIEGGLSVRETEALARKAPNLSAGKSKGGRPPRVKDTDTQALESDLSSVLGLDVSIDHRGSTGTLTITYATLEQLDDLCNRLTRGI

Variants of: B1
Test: one-hybrid fitness for binding NBS DNA (the Noc-binding site; scaled: cognate 1, non-cognate 0); higher = stronger binding
Conditions: with NBS DNA site
How it was run: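 In E. coli USO, a HIS3 reporter with its site placed 19 bp from the promoter was used to select Caulobacter ParB variants randomised at four specificity codons. Growth lasted 48 hours at 37°C on histidine-free M9 containing 0.1 mM IPTG and 5 mM 3-AT. Fitness was taken as the log change in variant-to-wild-type read ratio from Illumina sequencing of pre- and post-selection plasmids, rescaled between the non-cognate and cognate sites.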

Row | Variant | one-hybrid fitness for binding NBS DNA
1 | TQPW | ≤ 0.2
2 | KLRN | ≤ 0.2
3 | EHLW | ≤ 0.2
4 | SCER | ≤ 0.2
5 | HVKV | ≤ 0.2
6 | VRLS | ≤ 0.2
7 | NIII | ≤ 0.2
8 | HCPC | ≤ 0.2
9 | VPAH | ≤ 0.2
10 | WAGN | ≤ 0.2
11 | CPIL | ≤ 0.2
12 | STDR | ≤ 0.2
13 | NNNA | ≤ 0.2
14 | AITL | ≤ 0.2
15 | SPGL | ≤ 0.2
16 | CLCV | ≤ 0.2
17 | TTLC | ≤ 0.2
18 | ATHM | ≤ 0.2
19 | QQFM | ≤ 0.2
20 | SPEG | ≤ 0.2
21 | HSNT | ≤ 0.2
22 | YHRV | ≤ 0.2
23 | WIVS | ≤ 0.2
24 | EAPT | 0.239
25 | VKIM | ≤ 0.2
26 | GDNR | ≤ 0.2

Row | Variant | one-hybrid fitness for binding NBS DNA
27 | NSTN | ≤ 0.2
28 | NSDW | ≤ 0.2
29 | YPDE | ≤ 0.2
30 | QKYG | ≤ 0.2
31 | AYRT | ≤ 0.2
32 | KTMS | ≤ 0.2
33 | GCTC | ≤ 0.2
34 | PFRC | ≤ 0.2
35 | TLWD | ≤ 0.2
36 | KMTH | ≤ 0.2
37 | EELG | ≤ 0.2
38 | LHRP | ≤ 0.2
39 | RYDQ | ≤ 0.2
40 | YSTD | ≤ 0.2
41 | TATV | ≤ 0.2
42 | NTVS | ≤ 0.2
43 | NRLA | ≤ 0.2
44 | KNHG | ≤ 0.2
45 | DDNA | ≤ 0.2
46 | PTDK | ≤ 0.2
47 | AFHL | ≤ 0.2
48 | PYTW | ≤ 0.2
49 | QDSC | ≤ 0.2
50 | TTSH | ≤ 0.2
51 | PFGA | ≤ 0.2
52 | PANN | ≤ 0.2

Row | Variant | one-hybrid fitness for binding NBS DNA
53 | MVRC | ≤ 0.2
54 | VVSA | ≤ 0.2
55 | AGYC | ≤ 0.2
56 | LKDM | ≤ 0.2
57 | TKFR | ≤ 0.2
58 | VSVV | ≤ 0.2
59 | AWTE | ≤ 0.2
60 | CNGT | ≤ 0.2
61 | CITS | ≤ 0.2
62 | WCTS | ≤ 0.2
63 | SHCT | ≤ 0.2
64 | QCQW | ≤ 0.2
65 | GQTT | ≤ 0.2
66 | AHTG | ≤ 0.2
67 | KKPL | ≤ 0.2
68 | PWNH | ≤ 0.2
69 | QYRR | 0.979
70 | IAAT | ≤ 0.2
71 | WKPT | ≤ 0.2
72 | NLAS | ≤ 0.2
73 | YAFA | ≤ 0.2
74 | TKMA | ≤ 0.2
75 | AKIG | ≤ 0.2
76 | PRNQ | ≤ 0.2
77 | QPTT | ≤ 0.2

Source: a collection of fitness landscapes (doi:10.1016/j.celrep.2020.107928)
